Results published in EPA's CvTdb concentration-time database.
This continues a long series; more values of the same kind are listed elsewhere.

Key:
Assay in all cases: concentration in plasma after dosing
Rat [1] = settings: dosed: Perfluorooctane Sulfonate, 20 mg/kg, oral, Female, F344
Rat [2] = settings: dosed: Perfluorodecanoic acid, 10 mg/kg, oral, Male, Harlan Sprague Dawley
Rat [3] = settings: dosed: Perfluorodecanoic acid, 20 mg/kg, oral, Male, Harlan Sprague Dawley
Rat [4] = settings: 1 h; dosed: Perfluorodecanoic acid; 10 mg/kg; oral; Female; Harlan Sprague Dawley
Rat [5] = settings: 1 h; dosed: Perfluorodecanoic acid; 10 mg/kg; oral; Male; Harlan Sprague Dawley
Rat [6] = settings: dosed: Perfluorodecanoic acid, 2 mg/kg, oral, Male, Harlan Sprague Dawley
Rat [7] = settings: dosed: Perfluorodecanoic acid, 2 mg/kg, oral, Male, Harlan Sprague Dawley; remark: listed apart in the source
Rat [8] = settings: dosed: Fluorotelomer alcohol 8+2, 24 mg/kg, oral, Male, Harlan Sprague Dawley
Rat [9] = settings: 48 h; dosed: Perfluorooctanoic acid; 80 mg/kg; oral; Female; Harlan Sprague Dawley
Rat [10] = settings: dosed: Fluorotelomer alcohol 8+2, 48 mg/kg, oral, Male, Harlan Sprague Dawley
Rat [11] = settings: 12 h; dosed: Fluorotelomer alcohol 8+2; 80 mg/kg; oral; Female; Harlan Sprague Dawley
Rat [12] = settings: dosed: Fluorotelomer alcohol 8+2, 80 mg/kg, oral, Female, Harlan Sprague Dawley
Rat [13] = settings: dosed: Perfluorooctanoic acid, 6 mg/kg, oral, Male, Harlan Sprague Dawley

O=S(=O)([O-])C(F)(F)C(F)(F)C(F)(F)C(F)(F)C(F)(F)C(F)(F)C(F)(F)C(F)(F)F [Perfluorooctane Sulfonate]
Rat [1]
Settings	concentration in plasma [ng/mL]
5 min	924
192 h	73700
2520 h	11400

O=C(O)C(F)(F)C(F)(F)C(F)(F)C(F)(F)C(F)(F)C(F)(F)C(F)(F)C(F)(F)C(F)(F)F [Perfluorodecanoic acid]
Settings	concentration in plasma [ng/mL]
Rat [2], 12 h	46500
Rat [2], 864 h	11300
Rat [3], 12 h	83900
Rat [3], 1200 h	12800
Rat [6], 1 h	5520
Rat [6], 192 h	10600
Rat [6], 2520 h	838
Rat [7], 0.5 h	2630
Rat [7], 24 h	10700
Rat [7], 1848 h	1960

Settings	concentration in plasma [ng/mL]
Rat [4]	20900
Rat [5]	18800

O=C(O)C(F)(F)C(F)(F)C(F)(F)C(F)(F)C(F)(F)C(F)(F)C(F)(F)F [Perfluorooctanoic acid]
Settings	concentration in plasma [ng/mL]
Rat [8], 0.75 h	230
Rat [8], 48 h	937
Rat [10], 0.25 h	15.7
Rat [10], 6 h	1780
Rat [12], 0.75 h	987
Rat [12], 48 h	64.1
Rat [13], 0.25 h	9470
Rat [13], 12 h	36500
Rat [13], 528 h	9330

Settings	concentration in plasma [ng/mL]
Rat [9]	284
Rat [11]	409
